Measurements taken from patent publication US20250304700A1, “ANTI-BLOOD DENDRITIC CELL ANTIGEN 2 ANTIBODIES AND USES THEREOF” (Biogen MA Inc., priority 2012, published 2025).
Residue numbers refer to the chain shown, from its start. In names and notes the source's numbering stands. One block for each molecule: values may come before it.

Columns and labels:
surface human BDCA2 = target: T1, surface human BDCA2 (Homo sapiens, UniProt Q8WTT0); experiment: Direct binding dilution titration FACS on surface human BDCA2; conditions: surface expressed human BDCA2
T1 construct: stably transfected DG44 CHO cells co-expressing full-length BDCA2 and FcεRIγcDNAs (human or cynomolgus monkey); expressed in transfected cells
T1 sequence (Q8WTT0 1-213): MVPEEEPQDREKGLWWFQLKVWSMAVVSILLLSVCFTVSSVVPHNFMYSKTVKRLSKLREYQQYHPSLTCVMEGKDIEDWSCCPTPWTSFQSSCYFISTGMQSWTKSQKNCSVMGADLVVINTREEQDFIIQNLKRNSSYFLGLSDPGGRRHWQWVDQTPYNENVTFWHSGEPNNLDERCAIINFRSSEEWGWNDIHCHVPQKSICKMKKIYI
T1 sequence (P30273 19-86 partner): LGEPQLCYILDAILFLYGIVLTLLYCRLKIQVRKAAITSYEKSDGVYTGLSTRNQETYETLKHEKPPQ
Procedure: Expression vectors (ch24F4 heavy chain vectors pYL670 or pYL672 and ch24F4 light chain vector pYL671) were co-transfected into 293-EBNA cells and transfected cells were tested for antibody secretion and specificity (empty vector- and a molecularly cloned irrelevant mAb vector-transfected cells served as controls). […] Direct FACS binding to surface human BDCA2 confirmed the specificity of ch24F4. The EC50 binding of both variants of ch24F4 was equivalent to that of the murine 24F4 mAb by direct binding to surface expressed human BDCA2 by dilution titration FACS assay. Stable CHO cell lines secreting ch24F4-huIgG1, kappa mAb and agly ch24F4-huIgG4/G1 hybrid kappa mAb were produced by co-transfection with pYL672/pYL671 and pYL670/pYL671, respectively.
Site-directed mutagenesis was performed using Agilent's QuikChange II mutagenesis kit following the manufacturer's recommended protocol. The C95S variant was constructed using the mutagenic primer 5′ GCAACCTATTACTGTCAACAAAGTAATGAGGATCCTCGGAC 3′ (SEQ ID NO: 38) and its reverse complement, which introduced a new HincII site, producing plasmid pEAG2678. The C95T variant was constructed using the mutagenic primer 5′ CAACCTATTACTGTCAGCAAACTAATGAAGATCCTCGGACGTTCG 3′ (SEQ ID NO: 39) and its reverse complement, which removed a BamHI site, producing plasmid pEAG2679. […]

human BDCA2 ectodomain = target: T2, human BDCA2 ectodomain (Homo sapiens, UniProt Q8WTT0); experiment: Octet binding of mAbs on anti-human Fc tips to monomeric huBDCA2; conditions: for Octet binding and dissociation kinetics, in words: conditioned medium
T2 construct: huBDCA2 ectodomain: residues 257-425 above (underlined); murine IgG2a Fc (with G4S linker) (N, cleaved yes); made in house
T2 sequence (Q8WTT0 45-213): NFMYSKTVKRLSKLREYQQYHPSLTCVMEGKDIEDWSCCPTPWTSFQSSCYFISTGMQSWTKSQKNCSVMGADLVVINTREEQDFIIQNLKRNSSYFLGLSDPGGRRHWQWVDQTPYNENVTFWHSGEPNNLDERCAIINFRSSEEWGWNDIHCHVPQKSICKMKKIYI
Procedure: Site-directed mutagenesis was performed using Agilent's QuikChange II mutagenesis kit following the manufacturer's recommended protocol. The C95S variant was constructed using the mutagenic primer 5′ GCAACCTATTACTGTCAACAAAGTAATGAGGATCCTCGGAC 3′ (SEQ ID NO: 38) and its reverse complement, which introduced a new HincII site, producing plasmid pEAG2678. The C95T variant was constructed using the mutagenic primer 5′ CAACCTATTACTGTCAGCAAACTAATGAAGATCCTCGGACGTTCG 3′ (SEQ ID NO: 39) and its reverse complement, which removed a BamHI site, producing plasmid pEAG2679. Mutated plasmids were identified by screening for the introduced restriction site changes. The full-length light chain cDNA sequences in the resultant plasmids were confirmed by DNA sequencing. Wildtype ch24F4 and the C95S and C95T variant mAbs were expressed transiently in 293E cells by co-transfection of pYL672 and pYL671, pEAG2678 or pEAG2679. Conditioned medium was harvested at 2 days post-transfection. Titers (assayed by Octet on anti-human Fc tips) of both variants were similar to that of wildtype ch24F4, and Western blots of nonreducing SDS-PAGE indicated no gross aggregation or obvious clipping relative to wildtype ch24F4 mAb. […] Conditioned medium containing ch24F4 and the C95 variant mAbs was assayed by Octet for binding to human BDCA2 ectodomain. Antibodies from conditioned medium from transiently transfected cells were bound to anti-human Fc tips, then monomeric huBDCA2 was flowed over the Octet tips, to examine binding and dissociation.
Conditioned medium containing ch24F4 and all hu24F4 variant mAbs was assayed by Octet for binding to human BDCA2 ectodomain. The monomeric huBDCA2 ectodomain was prepared by proteolytic cleavage from the purified muIgG2a Fc-huBDCA2 fusion protein (relevant plasmid: pEAG2423). Antibodies from conditioned medium from transiently transfected cells were bound to anti-human Fc tips, and then monomeric huBDCA2 was flowed over the Octet tips, to examine binding and dissociation.
To explore the possibility of enhancing hu24F4 affinity by substitution at the position of the 24F4 version L1 CDR L3 unpaired cysteine (C95S in hu24F4 light chain expression vector pYL740), a number of version L1 variants were constructed by site-directed mutagenesis. Backmutation to the unpaired cysteine, i.e., S95C, was constructed by site-directed mutagenesis producing plasmid pYL749. Variants S95T, S95A, and S95V were constructed by site-directed mutagenesis producing plasmids pYL750, pYL751, and pYL752, respectively. The full-length light chain cDNA sequences in the resultant plasmids were confirmed by DNA sequencing. […]

[1] = Example 5, conditioned medium, hu24F4 variants

- apparent EC50 of direct binding by FACS, in words (surface human BDCA2): equivalent to that of wildtype ch24F4
- Octet binding and dissociation kinetics, in words (human BDCA2 ectodomain): equivalent
B1: C95S variant: ch24F4 light chain CDRL3 variant C95S (antibody)
heavy: DVKLVESGGGLVKPGGSLKLSCAASGFTFSTYTMSWVRQTPEKRLEWVATISPGDSFGYYYPDSVQGRFTISRDNAKNTLFLQMSSLKSEDTAMYYCTRDIYYNYGAWFAYWGQGTLVTVSA[human IgG1 constant region not written out]
light: DIVLTQSPASLAVSLGQRATISCKASQSVDYDGDSYMNWYQQKPGQPPKLLIYAASTLESGVPARFSGSGSGTDFTLNIHPVEEEDAATYYCQQSNEDPRTFGGGTKLEIKRTVAAPSVFIFPPSDEQLKSGTASVVCLLNNFYPREAKVQWKVDNALQSGNSQESVTEQDSKDSTYSLSSTLTLSKADYEKHKVYACEVTHQGLSSPVTKSFNRGEC

- kdis (human BDCA2 ectodomain; [1]): 0.00349 s⁻¹
- kon (human BDCA2 ectodomain; [1]): 1.61e+06 M⁻¹ s⁻¹
B2: ch24F4: murine-human chimera, mu24F4 variable regions linked to human IgG1 and kappa constant regions (antibody)
heavy: B1 heavy
light: B1 light with S95C

- apparent EC50 of direct binding by FACS, in words (surface human BDCA2): reduced by several-fold
- Octet binding and dissociation kinetics, in words (human BDCA2 ectodomain): faster than that of wildtype ch24F4
B3: C95T variant: ch24F4 light chain CDRL3 variant C95T (antibody)
heavy: B1 heavy
light: B1 light with S95T
